{"source": "paper PMC4336329", "about": "(PLoS ONE, 2015)", "note": "Among all 310,000 compounds or so, about 2,200 (0.71%) showed an effect of 50% or more. Effects have a minus sign here. This is one part of the list.", "data": [{"molecular_target": "human ether-à-go-go-related gene (hERG) potassium channel (human, UniProt Q12809)", "sequence (Q12809 whole entry, looked up)": "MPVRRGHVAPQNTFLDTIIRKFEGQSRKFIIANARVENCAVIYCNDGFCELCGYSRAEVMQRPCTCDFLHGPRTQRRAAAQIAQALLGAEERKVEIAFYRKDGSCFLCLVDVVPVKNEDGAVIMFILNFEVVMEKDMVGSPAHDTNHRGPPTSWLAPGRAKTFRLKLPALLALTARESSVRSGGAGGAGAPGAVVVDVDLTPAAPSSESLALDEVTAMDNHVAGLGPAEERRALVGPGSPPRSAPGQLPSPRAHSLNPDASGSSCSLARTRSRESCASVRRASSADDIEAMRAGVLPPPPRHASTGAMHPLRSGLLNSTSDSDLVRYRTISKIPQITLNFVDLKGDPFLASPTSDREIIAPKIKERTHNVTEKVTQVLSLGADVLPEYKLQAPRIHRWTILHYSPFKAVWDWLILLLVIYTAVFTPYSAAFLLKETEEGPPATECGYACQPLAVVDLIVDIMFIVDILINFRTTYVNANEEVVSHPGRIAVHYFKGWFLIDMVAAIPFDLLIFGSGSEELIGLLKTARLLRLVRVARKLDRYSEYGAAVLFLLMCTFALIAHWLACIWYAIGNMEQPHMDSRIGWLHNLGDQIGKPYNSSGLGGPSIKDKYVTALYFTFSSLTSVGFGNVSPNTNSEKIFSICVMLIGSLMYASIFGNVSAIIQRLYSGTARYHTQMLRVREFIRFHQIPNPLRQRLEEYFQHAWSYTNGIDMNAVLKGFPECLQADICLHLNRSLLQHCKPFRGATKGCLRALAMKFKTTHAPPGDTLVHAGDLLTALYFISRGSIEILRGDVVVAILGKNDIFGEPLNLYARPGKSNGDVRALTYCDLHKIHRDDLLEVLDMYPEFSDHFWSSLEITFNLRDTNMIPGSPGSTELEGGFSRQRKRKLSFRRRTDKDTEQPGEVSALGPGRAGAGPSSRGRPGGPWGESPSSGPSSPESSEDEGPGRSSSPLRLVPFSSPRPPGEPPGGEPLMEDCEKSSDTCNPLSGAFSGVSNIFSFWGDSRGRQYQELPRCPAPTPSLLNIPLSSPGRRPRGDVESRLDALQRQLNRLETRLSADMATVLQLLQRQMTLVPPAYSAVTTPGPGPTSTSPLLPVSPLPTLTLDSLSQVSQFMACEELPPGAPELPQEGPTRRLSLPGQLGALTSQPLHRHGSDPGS", "experiment": "primary screen, population patch clamp on CHO cells stably expressing hERG", "units": {"hERG current change (%, negative = inhibition) at 1uM": "%"}, "values": [{"smiles": "CCOc1ccc(C2NC(=O)Cc3cc(OC)c(OC)cc32)cc1", "note": "(stereo not drawn)", "hERG current change (%, negative = inhibition) at 1uM": 13.3}, {"smiles": "COc1ccc2c(c1)c(C(=O)O)c(C)n2C(C)C", "hERG current change (%, negative = inhibition) at 1uM": 11.4}, {"smiles": "CCCCNC(=O)CN1C(=O)NC2NC(=O)NC21", "note": "(stereo not drawn)", "hERG current change (%, negative = inhibition) at 1uM": 5.31}, {"smiles": "Cc1ccc(C)c(CSc2ncccc2C(=O)O)c1", "hERG current change (%, negative = inhibition) at 1uM": 19.3}, {"smiles": "Cc1nn(C(=O)c2ccco2)c(C)c1Sc1ccc([N+](=O)[O-])cc1", "hERG current change (%, negative = inhibition) at 1uM": 16.2}, {"smiles": "O=C(c1ccc(C(F)(F)F)cc1)c1c[nH]c(C(=O)NCCCn2ccnc2)c1", "hERG current change (%, negative = inhibition) at 1uM": -7.62}, {"smiles": "COCCNC(=O)c1ccc(Cl)c(Cl)c1", "hERG current change (%, negative = inhibition) at 1uM": 2.31}, {"smiles": "Cc1ccccc1S(=O)(=O)NC1OC(=O)C(Cl)=C1Cl", "note": "(stereo not drawn)", "hERG current change (%, negative = inhibition) at 1uM": 13}, {"smiles": "CC(=O)Nc1ccc(S(=O)(=O)N2CCC(N3CCCC3)CC2)cc1", "hERG current change (%, negative = inhibition) at 1uM": 17}, {"smiles": "CCN1CCN(C(=O)C(=O)c2cn(CC(=O)N3CCCCCC3)c3ccccc23)CC1", "hERG current change (%, negative = inhibition) at 1uM": 8.76}, {"smiles": "CC1CN(c2nc(-c3ccccc3)nc3ccccc23)CC(C)O1", "note": "(stereo not drawn)", "hERG current change (%, negative = inhibition) at 1uM": 7.37}, {"smiles": "CCOC(=O)c1sc(NS(=O)(=O)c2ccc(NC(C)=O)cc2)nc1C", "hERG current change (%, negative = inhibition) at 1uM": -1.94}, {"smiles": "CCOc1cc(/C=N/N=C(N)N)ccc1OCc1ccc(Cl)cc1", "hERG current change (%, negative = inhibition) at 1uM": 6.86}, {"smiles": "Cc1cccc(C(=O)NCC(=O)OCC(=O)N2CCCCC2)c1", "hERG current change (%, negative = inhibition) at 1uM": 13}, {"smiles": "NC(=O)CC(NC(=O)Cc1ccc(Br)cc1)c1ccc(NCCc2cccc(F)c2)c([N+](=O)[O-])c1", "note": "(stereo not drawn)", "hERG current change (%, negative = inhibition) at 1uM": 2.31}, {"smiles": "O=C(OC1CCOC1=O)c1cc(Cl)ccc1[N+](=O)[O-]", "note": "(stereo not drawn)", "hERG current change (%, negative = inhibition) at 1uM": 16.5}, {"smiles": "Cc1cc(Cl)ccc1NC(=S)NC(C)(C)C", "hERG current change (%, negative = inhibition) at 1uM": 18.5}, {"smiles": "CCn1c(SCC(=O)NCc2ccco2)nnc1C(C)C", "hERG current change (%, negative = inhibition) at 1uM": 2.73}, {"smiles": "Nc1c(C(=O)c2ccc(Br)cc2)oc2ccccc12", "hERG current change (%, negative = inhibition) at 1uM": 15.8}, {"smiles": "CCc1noc(C)c1C(=O)N(CC)CC(=O)Nc1ccccc1C(F)(F)F", "hERG current change (%, negative = inhibition) at 1uM": 3.86}, {"smiles": "CNc1ccccc1C(C)(C)c1cc(-c2ccc(F)cc2)no1", "hERG current change (%, negative = inhibition) at 1uM": 19.1}, {"smiles": "O=C(Nc1ccc2oc(=O)ccc2c1)c1ccc(-c2cccc([N+](=O)[O-])c2)o1", "hERG current change (%, negative = inhibition) at 1uM": 13.9}, {"smiles": "Nc1nc(CN2CCN(c3ccccc3)CC2)nc(N2CCCc3ccccc32)n1", "hERG current change (%, negative = inhibition) at 1uM": 2.47}, {"smiles": "C=CCN(Cc1cc(OC)ccc1OC)C(=O)c1cc2ccc(OC)cc2[nH]1", "hERG current change (%, negative = inhibition) at 1uM": 5.18}, {"smiles": "O=C(O)c1ccc(NC(CSCc2ccc(F)cc2)C(=O)O)c([N+](=O)[O-])c1", "note": "(stereo not drawn)", "hERG current change (%, negative = inhibition) at 1uM": 2.24}, {"smiles": "O=C(CN1CCN(Cc2ccccc2Cl)C1=O)N1CCCCCC1", "hERG current change (%, negative = inhibition) at 1uM": 5.43}, {"smiles": "Cc1cccc(NC(=O)/C=C/c2ccc3c(c2)OCO3)n1", "hERG current change (%, negative = inhibition) at 1uM": 16.8}, {"smiles": "COc1ccc(CCNC(=O)CSc2nnc3ccccn23)cc1", "hERG current change (%, negative = inhibition) at 1uM": 16.1}, {"smiles": "CCCC(=O)N1CCN(c2ccc(NC(=O)C(C)(C)C)cc2)CC1", "hERG current change (%, negative = inhibition) at 1uM": 14.3}, {"smiles": "O=C(CSc1n[nH]c(-c2ccccc2)n1)NCc1cccc(C(=O)O)c1", "hERG current change (%, negative = inhibition) at 1uM": 14.2}, {"smiles": "O=c1c2c3c(sc2nc2n1CCC2)CCCC3", "hERG current change (%, negative = inhibition) at 1uM": 10.9}, {"smiles": "CCOC(=O)c1c(N2C(=O)CC(Sc3ccccc3C(=O)O)C2=O)sc(C)c1C", "note": "(stereo not drawn)", "hERG current change (%, negative = inhibition) at 1uM": 13.6}, {"smiles": "Cc1ccc(-c2cn3cccnc3n2)cc1", "hERG current change (%, negative = inhibition) at 1uM": 13.4}, {"smiles": "NCCCCCc1cn([C@@H](CCC(=O)O)C(=O)NCCCCCCCCCCC(=O)N2CCNCC2)nn1", "hERG current change (%, negative = inhibition) at 1uM": 15}, {"smiles": "CCOC(=O)N1CCN(C(=O)c2cnn3c(C(F)F)cc(-c4ccc(C)cc4)nc23)CC1", "hERG current change (%, negative = inhibition) at 1uM": 5.77}, {"smiles": "O=C(CSc1cn(CCNC(=O)c2cccs2)c2ccccc12)NCc1ccccc1", "hERG current change (%, negative = inhibition) at 1uM": 6.95}, {"smiles": "COc1cccc2cc(C(=O)N3CCC(C)CC3)c(=O)oc12", "hERG current change (%, negative = inhibition) at 1uM": 4.67}, {"smiles": "CN(CC(=O)Nc1ccccc1Sc1ccccc1)Cc1nc2ccccc2c(=O)[nH]1", "hERG current change (%, negative = inhibition) at 1uM": 2.6}, {"smiles": "O=c1cc(N2CCOCC2)cnn1-c1ccccc1", "hERG current change (%, negative = inhibition) at 1uM": 2.76}, {"smiles": "NS(=O)(=O)c1cnccc1Nc1cccc(Br)c1", "hERG current change (%, negative = inhibition) at 1uM": 10.6}, {"smiles": "COC(=O)c1cnn(-c2nc(OC)cc(OC)n2)c1C", "hERG current change (%, negative = inhibition) at 1uM": 5.94}, {"smiles": "O=C(c1ccc(OC2CCN(Cc3ccccc3OC(F)F)CC2)cc1)N1CCCC1", "hERG current change (%, negative = inhibition) at 1uM": 12.4}, {"smiles": "COc1cc(SC)ccc1C(=O)NCCc1ccccc1", "hERG current change (%, negative = inhibition) at 1uM": 10.2}, {"smiles": "O=C(CN(Cc1ccc(F)cc1)C(=O)c1csnn1)NCc1ccccc1", "hERG current change (%, negative = inhibition) at 1uM": -3.73}, {"smiles": "CC1(C(=O)OCC(=O)Nc2nnc(-c3ccccc3)o2)CC1(Cl)Cl", "note": "(stereo not drawn)", "hERG current change (%, negative = inhibition) at 1uM": 11.8}]}]}
